The values that follow come from the supplement of paper PMC8728848.

The list shows a part of the results.

Holding throughout (experiment): glycan array binding signal (z-score within array); higher = stronger binding
What all share (settings): glycan notation: IUPAC condensed, linker removed

The target in test [1] is Neu5Ac9Ac(a2-3)Gal(b1-4)GlcNAc. In outline: (§1)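 Arrays were curated from the Consortium for Functional Glycomics database, 3228 in total, and kept only where the protein sequence was available. Binding is expressed as a within-array Z-score. This score was averaged across arrays of the same protein sequence at different concentrations or buffers and across linkers, and negative values can be read as non-binding.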

The target of test [2] is Neu5Ac9Ac(a2-6)Gal(b1-4)GlcNAc. In outline: as §1
In test [3] the target is Neu5Gc(a2-3)Gal(b1-3)GlcNAc. In outline:
as §1

Test [4] has as its target Neu5Gc(a2-3)Gal(b1-3)[Fuc(a1-4)]GlcNAc. An outline of the steps:
as §1

Another test concerns the target Neu5Gc(a2-3)Gal(b1-4)Glc. An outline of the steps: as §1
The target in test [5] is Neu5Gc(a2-3)Gal(b1-4)GlcNAc. An outline of the steps: as §1
Test [6] addresses Neu5Gc(a2-3)Gal(b1-4)[Fuc(a1-3)]GlcNAc. In outline: as §1
The target in test [7] is Neu5Gc(a2-6)Gal(b1-4)GlcNAc. In outline:
as §1

The target of another test is Neu5Gc(a2-6)GalNAc. An outline of the steps:
as §1

The target of test [8] is Neu5Gc(b2-6)Gal(b1-4)GlcNAc. In outline: as §1

B1: RS2L (Ralstonia solanacearum), B5RXL5_RALSO (protein)
chain: MAQQGVFTLPANTSFGVTAFANAANTQTIQVLVDNVVKATFTGSGTSDKLLGSQVLNSGSGAIKIQVSVNGKPSDLVSNQTILANKLNFAMVGSEDGTDNDYNDGIAVLNWPLG
B1: the “glycan array binding signal (z-score)” value in test [1] is -0.257; in test [2], -0.244; in test [3] it was -0.243; in test [4], -0.202; with Neu5Gc(a2-3)Gal(b1-4)Glc it was -0.245; in test [5] it was -0.242. The “glycan array binding signal (z-score)” value in [6] was -0.235; in [7] it was -0.245; with Neu5Gc(a2-6)GalNAc, -0.235; in [8] it was -0.242.
